Data from PubChem BioAssay AID624296 (National Center for Advancing Translational Sciences (NCATS), 2012).
Screen size: about 350,000 compounds; about 9,900 (2.8%) were called active. This list was built around the results that the source calls inconclusive (neither active nor inactive); the mix of calls is not that of the screen. Calls come from the whole dose curve; as a rule, active = well fitted activation curve with a large enough effect; inconclusive = small, poorly fitted or top-dose-only effect; inactive = no such curve, though single readings can be large or run the other way. Potencies of inconclusive entries are left out as doubtful fits.

test: A quantitative high throughput screen for small molecules that induce DNA re-replication in MCF 10a normal breast cells.; note: nearly all actives have a fitted effect of over 50% in size; for activity, positive = re-replication: % of control where 0% means no effect; conditions: MCF 10A DNA re-replication, Hoechst nuclear intensity, 48 h; activity, positive = re-replication: at 46.1 µM (top of the series)
Potency is the fitted concentration of half-maximal effect; tags give direction and shape of the fitted curve.

Row | Compound | activity, positive = re-replication | Potency
1 | CC(C)CN(C(=O)CCNC(=O)c1ccccc1Cl)C1CCS(=O)(=O)C1 (stereo unspecified) | inactive: 3.28% | –
2 | Cc1ccccc1S(=O)(=O)N1[C@@H](c2cccc(Cl)c2)C(C(=O)O)=CC[C@H]1c1ccc(Cl)cc1 | – | inconclusive [activator, single point]
3 | Cc1ccc(-n2nc(C)c(NS(=O)(=O)c3ccccc3)c2C)cc1C | – | inconclusive [activator, single point]
4 | COCCNC(=O)C(c1ccc(C)o1)N(Cc1cccs1)C(=O)c1snc(C(N)=O)c1N (stereo unspecified) | – | inconclusive [activator, single point]
5 | [O-]/C(=C(\C(=S)Nc1ccccc1F)[n+]1ccccc1)c1ccc(-c2ccccc2)cc1 | inactive: 7.07% | –
6 | Cc1nc2ccc(C(=O)OCc3nnc(-c4ccccc4)o3)cc2nc1C | – | inconclusive [activator, single point]
7 | CCOC(=O)[C@H]1[C@H]2COc3ccccc3[C@@H]2N2C(=O)[C@@H](C)NC(=O)[C@@]12C | inactive: -9.01% | –
8 | N#Cc1c(/N=C/c2ccco2)oc(-c2ccccc2)c1-c1ccccc1 | – | inconclusive [activator, partial curve, poor fit]
9 | Oc1ccc(-c2csc(-c3cccnc3)n2)c(O)c1 | – | inconclusive [activator, partial curve, poor fit]
10 | Cn1c(N)c(C(=O)COC(=O)c2cc(C3CC3)nc3ccccc23)c(=O)n(C)c1=O | – | inconclusive [activator, full curve]
11 | CC1CCN(c2ccc(NC(=O)c3cccnc3Cl)cc2)CC1 | inactive: -3.35% | –
12 | CC(C)(CNC(=S)NCCc1ccccc1)CNC(=S)NCCc1ccccc1 | – | active: 23.1 µM
13 | Cc1nonc1NC(=O)CSc1nc(CCC2CCCC2)nc2ccccc12 | – | active: 7.31 µM
14 | c1ccc(C[n+]2cccc3c4ccccc4ccc32)cc1 | – | inconclusive [activator, single point]
15 | CN(C)S(=O)(=O)n1cc(/C=C(\NC(=O)c2ccccc2F)C(=O)NCCCn2ccnc2)c2ccccc21 | inactive: -2.36% | –
16 | CCCCn1cnc(C(=O)OCC)c1N | – | inconclusive [activator, single point]
17 | NC(=O)c1ccccc1N=Cc1cccnc1 | inactive: 0.258% | –
18 | OC(c1cc(C(F)(F)F)nc2c(C(F)(F)F)cccc12)C1CCCCN1 (stereo unspecified) | – | inconclusive [activator, full curve, poor fit]
19 | CCN1CCN(C(=O)c2ccc3nc(-c4ccccc4)c(-c4ccccc4)nc3c2)CC1 | – | inconclusive [activator, partial curve, poor fit]
20 | CC(=O)C1=C(C)N(Cc2ccccc2)C(=O)N[C@@H]1c1cccc(C(F)(F)F)c1 | – | inconclusive [activator, full curve, poor fit]
21 | CSc1sc(C(=O)O)c2c1C(=O)CC(C)(C)C2 | – | inconclusive [activator, single point]
22 | Fc1ccccc1C(c1nnnn1C1CCCC1)N1CCN(Cc2ccccc2)CC1 (stereo unspecified) | inactive: -5.39% | –
23 | O=C(Cc1ccc(Cl)cc1)Nc1ccc(N2CCN(C(=O)c3ccco3)CC2)c(Cl)c1 | – | inconclusive [activator, single point]
24 | Cc1nc2sccn2c1-c1nc(-c2cc3ccccc3o2)cs1 | – | inconclusive [activator, single point]

Row | Compound | activity, positive = re-replication | Potency
25 | Cc1ccsc1CN(C)C(=O)CN1C(=O)NC2(CCCc3ccccc32)C1=O (stereo unspecified) | – | inconclusive [activator, single point]
26 | COc1ccc2c(c1)CCC1C2=NN(/C(C)=C/C(C)=O)C1c1cccc(F)c1 (stereo unspecified) | – | inconclusive [activator, single point]
27 | Cc1ccc(N2CCN(C(=O)c3cc(COc4c(C)cccc4C)on3)CC2)c(C)c1 | – | inconclusive [activator, partial curve]
28 | CCC(=O)Nc1ccc(C(=O)NNC(=O)c2ccccc2)cc1 | – | inconclusive [activator, single point]
29 | COc1cccc(/C=N/NC(=O)c2cc(C34CC5CC(CC(C5)C3)C4)[nH]n2)c1 | – | inconclusive [activator, partial curve]
30 | O=C(COc1ccccc1)Nc1nc2cc3c(cc2s1)OCCO3 | inactive: -9.63% | –
31 | C/C(=N\NC(=O)c1c([N+](=O)[O-])c(C)nn1C)c1ccc(NC(=O)c2ccc(C)o2)cc1 | inactive: 2.07% | –
32 | COc1cc(Cn2c(N)c(C#N)c3nc4ccccc4nc32)cc(OC)c1 | – | active: 4.61 µM
33 | Cc1ccc(-c2[nH]nc3c2C(c2ccc(OC(=O)N4CCOCC4)cc2)C(C#N)=C(N)O3)cc1 (stereo unspecified) | – | inconclusive [activator, single point]
34 | CCc1ccc(C(=O)CCC(=O)Nc2ccc(OC)c(S(=O)(=O)N3CCCCC3)c2)cc1 | – | inconclusive [activator, single point]
35 | Cc1ccc(/C=N/NC(=O)CSc2nc3ccccc3c(=O)n2-c2ccccc2)s1 | inactive: -65% | –
36 | Cc1ccc(C(=O)N/C(=C/c2ccccc2)C(=O)NCC2CCCO2)cc1 (stereo unspecified) | inactive: -0.653% | –
37 | Cc1ccc(-c2cc(C(F)F)nc(N3CCC(C)CC3)n2)cc1 | – | inconclusive [activator, single point]
38 | Cc1ccc(OCc2nnc(SCC(=O)Nc3nccs3)n2-c2ccccc2)cc1C | inactive: -0.355% | –
39 | COc1ccc(/C=C(\NC(=O)c2ccc(C)cc2)C(=O)NCCCN2CCOCC2)cc1OC | inconclusive: -25.5% [activator] | –
40 | N#C/C(=C\c1ccc(-c2ccccc2C(=O)O)o1)c1nc2ccccc2[nH]1 | – | inconclusive [activator, single point]
41 | CC(=O)c1cccc(NC(=O)CCS(=O)(=O)c2cc3c(cc2C)NC(=O)CO3)c1 | inactive: -3.71% | –
42 | COc1cc(C2NC(=O)NC(c3ccccc3)=C2C(C)=O)ccc1OCC(=O)O (stereo unspecified) | – | inconclusive [activator, single point]
43 | O=C(/C=C/c1ccc(Br)o1)OCc1ccccc1 | – | inconclusive [activator, single point]
44 | CCN(CC(=O)NC(C)(C)C)C(=O)COc1c(Cl)cc(Cl)c2ccc(C)nc12 | inactive: 18% | –
45 | Nn1c(SCC(=O)N2CCCc3ccccc32)nncc1=O | – | inconclusive [activator, partial curve, poor fit]
46 | Nc1nc(-c2cc(O)ccc2[N+](=O)[O-])cc(-c2ccccc2)c1[N+](=O)[O-] | – | active: 1.84 µM
47 | COc1ccc2c(C=O)c[nH]c2c1 | inactive: -0.566% | –
48 | COC(/C(=N/O)c1ccc(Cl)cc1)c1ccccc1 (stereo unspecified) | – | inconclusive [activator, single point]

Row | Compound | activity, positive = re-replication | Potency
49 | Cc1nc(NNC(=O)c2ccc([N+](=O)[O-])cc2)cc(-c2ccccc2)n1 | inactive: -0.11% | –
50 | COc1ccc(N2C(=O)C3C(C2=O)C(C(=O)c2ccc(Cl)cc2)N2CCCC32)cc1 (stereo unspecified) | – | active: 14.6 µM
51 | N#C/C(=C\c1cn(CCOc2ccccc2)c2ccccc12)C(=O)NCc1ccco1 | – | inconclusive [activator, partial curve]
52 | CCn1cnc2c(cnn2-c2ccccc2)c1=O | inactive: 7.99% | –
53 | Cc1nnc(Sc2c(-c3ccccc3)c3ccc(Cl)cc3[nH]c2=O)s1 | – | inconclusive [activator, full curve, poor fit]
54 | COCC(C)OC(=O)c1c(N)n(CC(C)C)c2nc3ccccc3nc12 (stereo unspecified) | inactive: 27% | –
55 | Cc1ccc(O)c(CNc2nc3ccccc3n2C(C)C)c1 | inactive: 4.62% | –
56 | COc1ccc(S(=O)(=O)NCc2cccnc2)cc1NC(=O)c1ccc(Cl)cc1 | inactive: 3.59% | –
57 | Cn1c(CNC(=O)c2ccco2)nnc1SCC(=O)c1ccc(Br)cc1 | inactive: -0.409% | –
58 | CC(C)(C)Nc1nc(Cl)nc(N(C#N)CN2C(=O)c3ccccc3S2(=O)=O)n1 | – | inconclusive [activator, single point]
59 | CCOC(=O)c1c(N)nn(C(=O)C(C)C)c1-c1ccccc1 | inactive: 9.37% | –
60 | COc1ccc(-n2c(=O)/c(=C\c3cccs3)s/c2=C(/C#N)C(=O)N2CCN(C)CC2)cc1 | – | inconclusive [activator, single point]
61 | Nc1cccc(-c2nc3cc(S(=O)(=O)c4ccc5oc(-c6cccc(N)c6)nc5c4)ccc3o2)c1 | – | inconclusive [activator, full curve]
62 | COCCn1c(=N)c(C(=O)NCc2ccco2)cc2c(=O)n3ccccc3nc21 | – | active: 10 µM
63 | Cc1ccc(CNc2oc(COc3ccccc3Cl)nc2C#N)cc1 | – | active: 4.11 µM
64 | CC(=O)Nc1sc(C)c(C)c1C(=O)OCC(=O)Nc1cc(S(C)(=O)=O)ccc1Cl | inactive: -0.0334% | –
65 | COc1ccc2cc(C(=O)/C=C/c3cc(OC)c(O)c(OC)c3)ccc2c1 | – | active: 9.2 µM
66 | Cc1cc(S(=O)(=O)N2CCOCC2)ccc1OCC(=O)N1CCCC1 | inactive: 10.7% | –
67 | Cc1ccc2cc(CN(C(=O)c3cccnc3)C(C)C)c(=O)[nH]c2c1 | – | inconclusive [activator, single point]
68 | COc1ccc(-c2[nH]n(-c3ccc([N+](=O)[O-])cc3)c(=O)c2C=NCc2ccc(F)cc2)cc1 | – | inconclusive [activator, single point]
69 | C[C@@H]1CCCCCCCCC(=O)OCCN[C@H](C)CCCCCCCCC(=O)OCCN[C@H](C)CCCCCCCCC(=O)OCCN1 | – | inconclusive [activator, full curve, poor fit]
70 | Cc1ccccc1C(=O)N(Cc1cccs1)C1CCS(=O)(=O)C1 (stereo unspecified) | inactive: -3.6% | –
71 | O=C(Nc1ccc2c(c1)OCO2)C1CCN(S(=O)(=O)c2cccs2)CC1 | inactive: 18.5% | –
